Reference: PubChem BioAssay AID1671194 (National Center for Advancing Translational Sciences (NCATS), 2021)
Values joined by “and” are separate entries in the source; they are usually repeats but may differ in a detail not shown here. Equal values may be shown once. The campaign covered roughly 140,000 compounds. About 240 (0.17%) were called active. This list was built around the results that the source calls inconclusive (neither active nor inactive); the mix of calls is not that of the screen. Calls come from the whole dose curve; as a rule, active = well fitted inhibition curve with a large enough effect; inconclusive = small, poorly fitted or top-dose-only effect; inactive = no such curve, though single readings can be large or run the other way. Where the call is inconclusive, the potency comes from a doubtful curve fit.

Assay: Primary qHTS assay for inhibitors of alpha-synuclein gene (SNCA) expression; note: nearly all actives have a fitted effect of over 45% in size
Conditions: HEK-293 SNCA-luciferase knock-in, luminescence, 24 h; series mostly up to 57.2 µM
Potency is the fitted concentration of half-maximal effect; tags give direction and shape of the fitted curve.

Question: Which Potency does the source give for `COc1ccc(OC)c([S+](=O)([O-])c2nnn3c2nc(NC2CCCC2)c2ccccc23)c1` here?
Answer: inactive

Question: For `COc1ccc(-c2noc(-c3cccn3CC(=O)Nc3ccc(F)cc3)n2)cc1F`, which Potency is on record?
Answer: inactive

Question: For `O=c1[nH]c(C2CCCN(Cc3ccc(F)cc3)C2)nn1-c1ccccc1` (stereo not drawn), which Potency is on record?
Answer: inactive

Question: For `C[C@@]12CO[C@@H](COc3ccccc3)O[C@@H]1CC[C@]1(C)C2CC[C@@H](O)[C@H]1CC(=O)NCc1cc(F)cc(F)c1` (stereo partly drawn), which Potency is on record?
Answer: inconclusive: 39.8 µM [inhibitor, single point]

Question: Which Potency does the source give for `COc1ccc(CCNC(=O)c2ccc3c(c2)N(Cc2ccccc2)CCS3)cc1OC` here?
Answer: inconclusive: 39.8 µM [inhibitor, single point]

Question: With `C[C@](N)(Cc1ccc(O)cc1)C(=O)O` as the compound, how does the Potency read?
Answer: inactive

Question: With `Cc1ccc(NC(=O)c2oc3c(c2C)-c2[nH]ncc2CC3)c(Cl)c1` as the compound, how does the Potency read?
Answer: inactive

Question: With `C[S+](=O)([O-])c1cccc(CN2CC(COc3ccccc3)C3(C2)CN(c2ccccc2)C3)c1` (stereo not drawn) as the compound, how does the Potency read?
Answer: inconclusive: 39.8 µM [inhibitor, single point]

Question: Which Potency does the source give for `Cc1ccc(-c2ccc3nnc(CNC(=O)c4cccc(N(C)C)c4)n3n2)cc1` here?
Answer: inactive

Question: Which Potency does the source give for `O=C(c1cc(C(F)(F)F)cc(C(F)(F)F)c1)N1CCC2(CCN(Cc3ccncc3)CC2)CC1` here?
Answer: inconclusive: 12.6 µM [inhibitor, single point]

Question: For `CN(CCc1noc(C2CC2)n1)C(=O)[C@H]1CNC[C@@H](C(=O)N2CCCC2)C1`, which Potency is on record?
Answer: inconclusive: 8.91 µM [inhibitor, single point]

Question: With `COc1cccc(CC(=O)Nc2ccc(-c3nc4ccccc4s3)cc2Cl)c1` as the compound, how does the Potency read?
Answer: inactive

Question: For `CCOCc1nc(C2CCCN(C(=O)Cc3c(C)noc3C)C2)no1` (stereo not drawn), which Potency is on record?
Answer: inconclusive: 10 µM [inhibitor, partial curve, poor fit]

Question: With `CC1(C)[C@H](Cc2cc(COc3ccccc3)on2)C[C@@H]1NC(=O)c1cccs1` as the compound, how does the Potency read?
Answer: inactive

Question: For `COCC(=O)NC[C@H]1CCN(Cc2ccc(Cl)cc2)C[C@H]1N(C)C`, which Potency is on record?
Answer: inactive

Question: With `CCCOc1ccc(NC(=O)C(=O)NCCCN2CCOCC2)cc1` as the compound, how does the Potency read?
Answer: inconclusive: 22.4 µM [inhibitor, single point]

Question: With `CCOc1ccc(NC(=O)CCc2c(C)nc3cc(-c4ccc(Cl)cc4)nn3c2C)cc1` as the compound, how does the Potency read?
Answer: inconclusive: 0.891 µM [inhibitor, full curve, poor fit]

Question: With `Cc1cn(CC(=O)N2CC[C@@](C)(O)[C@@H](Cc3ccccc3)C2)c(=O)[nH]c1=O` as the compound, how does the Potency read?
Answer: inactive

Question: For `Cc1cc(C)cc(-c2ccc(CN3CCCC(NC(=O)Nc4ccccc4)C3)cc2)c1` (stereo not drawn), which Potency is on record?
Answer: inconclusive: 39.8 µM [inhibitor, single point]

Question: With `Cc1cccc(N2CCN(C(=O)c3noc(-c4ccc[nH]c4=O)n3)CC2)c1C` as the compound, how does the Potency read?
Answer: inactive

Question: With `C#CCNC(=O)C1CN(c2cccc(Cl)c2)C(=O)N1` (stereo not drawn) as the compound, how does the Potency read?
Answer: inactive and inconclusive: 10 µM [inhibitor, full curve, poor fit]

Question: For `COC[C@@H]1CN(c2ncccn2)C[C@H]1C(=O)N1CCc2ccccc21`, which Potency is on record?
Answer: inactive

Question: For `O=C(NCc1cccs1)c1nc(-c2cccnc2)c2cnccn12`, which Potency is on record?
Answer: inactive

Question: With `N#Cc1cccc(NC(=O)N2CC3(CCN(C(=O)c4cccc(F)c4)CC3)C2)c1` as the compound, how does the Potency read?
Answer: inactive

Question: With `CCn1nccc1C(=O)N1CC(c2nc(CCOc3cccc(C)c3)no2)C1` as the compound, how does the Potency read?
Answer: inconclusive: 15.8 µM [inhibitor, partial curve, poor fit]

Question: For `COc1ccc(Cn2c(=O)c3ccccc3n3c(-c4cccc(OC)c4OC)nnc23)cc1`, which Potency is on record?
Answer: inconclusive: 17.8 µM [inhibitor, single point]

Question: For `CCOC(=O)c1c(NC(C)=O)c2c3c(sc2n1Cc1nc(-c2ccccc2Cl)oc1C)CCCC3`, which Potency is on record?
Answer: inconclusive: 3.16 µM [inhibitor, single point]

Question: Which Potency does the source give for `Cc1ccc(CNC(=O)c2cc3c(s2)-c2c(C)cccc2OC3)cc1` here?
Answer: inconclusive: 4.47 µM [inhibitor, partial curve, poor fit]

Question: For `CC(C)CNC(=O)c1ccc2nnc(C3CCCC3)n2c1`, which Potency is on record?
Answer: inactive

Question: Which Potency does the source give for `N#Cc1ccccc1Cn1cnc2nc3c(cc2c1=O)CCCC3` here?
Answer: inconclusive: 7.08 µM [inhibitor, single point]

Question: For `COc1ccc2c(c1)sc1ncc(C(=O)NCc3cccc(C)c3)c(=O)n12`, which Potency is on record?
Answer: inconclusive: 11.2 µM [inhibitor, single point]

Question: For `COC(=O)[C@@H]1Cc2ncn(Cc3ccc(OC)cc3)c2CN1Cc1ccc(F)cc1`, which Potency is on record?
Answer: inactive

Question: With `Fc1ccccc1Nc1ccnc(N2CC3CCC(C2)N3CC(F)(F)F)n1` as the compound, how does the Potency read?
Answer: inconclusive: 2.82 µM [inhibitor, full curve, poor fit]

Question: Which Potency does the source give for `COc1ccc(CNc2nc(SCc3ccccc3Cl)nc3ccccc23)cc1` here?
Answer: inconclusive: 39.8 µM [inhibitor, single point]

Question: Which Potency does the source give for `O=C(CCc1ccccc1)N1CCc2c(nc(-c3ccc(F)cc3)[nH]c2=O)C1` here?
Answer: inactive

Question: For `COc1ccc(NC(=O)CCc2nnc3n(Cc4ccc(C)cc4)c(=O)c4ccccc4n23)cc1`, which Potency is on record?
Answer: inconclusive: 3.98 µM [inhibitor, single point]

Question: Which Potency does the source give for `O=C(CN1C(=O)NC(c2ccccc2Cl)C2=C1COC2=O)Nc1cc(F)ccc1Cl` (stereo not drawn) here?
Answer: inconclusive: 39.8 µM [inhibitor, single point]

Question: With `COCCN1C(=O)[C@@H]2C[C@@H](CN2C(=O)c2ccc3c(c2)OCO3)Oc2ccccc21` as the compound, how does the Potency read?
Answer: inactive

Question: For `CN(Cc1ccccc1)C(=O)C[C@@H]1CCNC[C@@H]1Cc1cc(CN(C)c2ccccc2)on1`, which Potency is on record?
Answer: inactive

Question: For `Cc1nn(-c2ccc(F)cc2)c(Oc2ccccc2)c1CCC(=O)N1CCOCC1`, which Potency is on record?
Answer: inconclusive: 15.8 µM [inhibitor, partial curve]

Question: For `COc1ccc(CCNC(=O)c2ccc3c(c2)ncn3-c2ccc(C(C)C)cc2)cc1OC`, which Potency is on record?
Answer: inconclusive: 20 µM [inhibitor, partial curve]

Question: For `CC(C)c1ccc2occ(CC(=O)N(Cc3ccc(F)cc3)C3CCS(=O)(=O)C3)c2c1` (stereo not drawn), which Potency is on record?
Answer: inconclusive: 12.6 µM [inhibitor, partial curve, poor fit]

Question: For `COCC(=O)NC1CCC12CCN(C(=O)c1cnc(C)cn1)CC2` (stereo not drawn), which Potency is on record?
Answer: inconclusive: 14.1 µM [inhibitor, partial curve, poor fit]
